In the supplement of paper PMC4967469:

What was measured:
Assay in all cases: Viability of human cancer cell lines after 72 h of drug (GDSC screen)
[1] = compound: NC(=O)c1cccc(-c2cc(Nc3ccc(OC(F)(F)F)cc3)ncn2)c1 [GNF-2]; settings: top dose 1.28 µM; top dose inferred
Method: (§1)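 Human cancer cell lines in 384-well plates, medium with 10% serum, drug for 72 h over a 256-fold dose range (nine 2-fold or five 4-fold steps up to the top dose). Adherent lines were fixed and stained with the nucleic acid dye Syto60, suspension lines read with resazurin; signal relative to control wells, capped at 0 and 100%. One two-parameter sigmoid per drug and line, fitted in a mixed model over all curves with the slope shared within a line.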

[2] = compound: S=C(NCc1ccc2c(c1)OCO2)N1CCN(c2ncnc3c2oc2ccccc23)CC1 [MP470]; settings: top dose 20 µM; top dose inferred
Method: as §1

[3] = compound: O=S(=O)(c1ccccc1)N(CC(F)(F)F)c1ccc(C(O)(C(F)(F)F)C(F)(F)F)cc1 [T0901317]; settings: top dose 10.24 µM; top dose inferred
Method: as §1

[4] = compound: CC(O)(CS(=O)(=O)c1ccc(F)cc1)C(=O)Nc1ccc(C#N)c(C(F)(F)F)c1 [Bicalutamide]; settings: top dose inferred
Method: as §1

[5] = compound: C/C(O)=C(\C#N)C(=O)Nc1cc(Br)ccc1Br [LFM-A13]; settings: top dose 16 µM; top dose inferred
Method: as §1

[6] = compound: Cc1ccc(Nc2cc(-c3cccc(N4C(=O)c5ccccc5C4=O)c3)ncn2)cc1NS(C)(=O)=O [KIN001-270]; settings: top dose 20 µM; top dose inferred
Method: as §1

[7] = compound: CCNC(=O)c1noc(-c2cc(C(C)C)c(O)cc2O)c1-c1ccc(CN2CCOCC2)cc1 [AUY922]; settings: top dose 0.256 µM; top dose inferred
Method: as §1

[8] = compound: CC(C)c1ccccc1Cc1cc(C(=O)Nc2ccc(S(=O)(=O)c3ccccc3C(C)(C)C)cc2)c(O)c(O)c1O [TW-37]; settings: top dose 5 µM
Method: as §1

[9] = compound: Nc1ccn([C@@H]2O[C@H](CO)[C@@H](O)C2(F)F)c(=O)n1 [Gemcitabine]; settings: top dose 1.024 µM
Method: as §1

[10] = top dose 1.024 µM, screen: GDSC drug entry 150
[11] = top dose 10 µM, screen: GDSC drug entry 1502

Row | Cell Line | AUC [1] | IC50 [1] [nM] | AUC [2] | IC50 [2] [nM] | AUC [3] | IC50 [3] [nM] | AUC [4, 10] | IC50 [4, 10] [nM] | AUC [4, 11] | IC50 [4, 11] [nM] | AUC [5] | IC50 [5] [nM] | AUC [6] | IC50 [6] [nM] | AUC [7] | IC50 [7] [nM] | AUC [8] | IC50 [8] [nM] | AUC [9] | IC50 [9] [nM]
1 | NCI-H1395 (lung adenocarcinoma, adherent) | 0.976 | > 1280 | 0.97 | > 20000 | 0.982 | > 10200 | 0.982 | > 1020 | 0.961 | > 10000 | 0.971 | > 16000 | 0.955 | > 20000 | 0.966 | > 256 | 0.616 | 725 | 0.956 | > 1020
2 | COLO-800 (melanoma, adherent) | 0.978 | > 1280 | 0.743 | 6040 | 0.963 | > 10200 | 0.987 | > 1020 | 0.979 | > 10000 | 0.891 | > 16000 | 0.983 | > 20000 | 0.633 | 36.8 | 0.495 | 302 | 0.37 | 28.3
3 | NB7 (neuroblastoma, adherent) | 0.986 | > 1280 | 0.059 | < 78.1 | 0.952 | > 10200 | 0.985 | > 1020 | 0.939 | > 10000 | 0.957 | > 16000 | 0.95 | > 20000 | 0.684 | 53.9 | 0.374 | 138 | 0.886 | > 1020
4 | KU812 (chronic myeloid leukaemia, suspension) | 0.988 | > 1280 | 0.197 | 176 | 0.874 | 8460 | 0.985 | > 1020 | 0.975 | > 10000 | 0.87 | 12700 | 0.923 | > 20000 | 0.56 | 22.9 | 0.772 | 1770 | 0.13 | 5.04
5 | LB996-RCC (kidney, adherent) | 0.964 | > 1280 | 0.899 | > 20000 | 0.983 | > 10200 | 0.982 | > 1020 | 0.965 | > 10000 | 0.936 | > 16000 | 0.98 | > 20000 | 0.567 | 25.1 | 0.443 | 213 | 0.457 | 47.9
6 | TGBC24TKB (biliary tract, adherent) | 0.981 | > 1280 | 0.917 | > 20000 | 0.985 | > 10200 | 0.986 | > 1020 | 0.982 | > 10000 | 0.989 | > 16000 | 0.976 | > 20000 | 0.987 | > 256 | 0.525 | 364 | 0.844 | 661
7 | HCE-4 (oesophagus, adherent) | 0.991 | > 1280 | 0.975 | > 20000 | 0.99 | > 10200 | 0.992 | > 1020 |  |  | 0.988 | > 16000 | 0.992 | > 20000 | 0.517 | 17.7 | 0.584 | 511 | 0.096 | 4.01
8 | RS4-11 (leukaemia, suspension) | 0.989 | > 1280 | 0.851 | 13400 | 0.892 | > 10200 | 0.988 | > 1020 | 0.986 | > 10000 | 0.941 | > 16000 | 0.925 | > 20000 | 0.494 | 15.5 | 0.459 | 243 | 0.139 | 5.47
9 | NCI-H1648 (lung adenocarcinoma, adherent) | 0.951 | > 1280 | 0.889 | > 20000 | 0.982 | > 10200 | 0.985 | > 1020 | 0.971 | > 10000 | 0.952 | > 16000 | 0.959 | > 20000 | 0.488 | 14.8 | 0.722 | 1400 | 0.7 | 244
10 | IST-MES1 (mesothelioma, adherent) | 0.987 | > 1280 | 0.824 | 12100 | 0.986 | > 10200 | 0.987 | > 1020 |  |  | 0.933 | > 16000 | 0.972 | > 20000 | 0.888 | > 256 | 0.48 | 275 | 0.788 | 452
11 | KG-1 (acute myeloid leukaemia, suspension) | 0.985 | > 1280 | 0.699 | 4230 | 0.945 | > 10200 | 0.99 | > 1020 | 0.977 | > 10000 | 0.99 | > 16000 | 0.939 | > 20000 | 0.685 | 49.2 | 0.665 | 850 | 0.433 | 42.8

The IC50 comes from the fitted curve, where viability falls to half of the control; a fit beyond the top or the lowest dose is shown as a bound at that dose. For AUC the same curve is integrated over the 256-fold range of doses and scaled to a fraction: 1 means no effect, lower means more sensitive. For part of these data: A top dose marked as inferred was calculated from the reported fits. For part of these data: An entry number marks a drug with two screens in the source, which often give different values.
